In patent US20230322822A1, “ARYL PHOSPHOROUS OXIDE COMPOUNDS AND USE THEREOF” (Chengdu Di'ao Jiuhong Pharmaceutical Factory, priority 2020, published 2023):

Tests used:
EGFR-WT = EGFR-WT (Homo sapiens (Human), UniProt P00533); assay: Enzymatic activity test (ADP-Glo) EGFR-WT; type: biochemical; conditions: kinase
Method: (§1) • 1. […] Test information:
(§2) To assess the effect of compounds on the activity of wild-type and mutant EGFR kinases, kinase activity was tested by measuring ATP consumption in an enzymatic reaction using an ADP-Glo (Promega Corporation) kit. Samples to be tested were dissolved in DMSO and diluted in a gradient. In a microplate, an EGFR kinase, a reaction buffer (containing Tris-HCl with a pH of 7.5, MgCl2, DTT and BSA), a kinase substrate Poly(Glu4, Tyr1) and a sample (a total volume of 20 μL per well) were added per well, while a blank control (no enzyme and sample) and a negative control (no sample) were set up; incubated for 15 minutes at 23° C.; added with 5 μL of ATP, and reacted at 23° C. for 60 minutes; added with ADP-Glo Reagent, and continuously reacted for 40 minutes at room temperature to inactivate the redundant ATP; then, added with a Kinase Detection Reagent, and reacted at room temperature for 30 minutes, then the chemiluminescence intensity L of each well was measured. […] IC50 values were calculated according to the above calculation using 4Parameter Logistic Model in XLfit software. • 3.

EGFR-C797S/T790M/L858R = EGFR-C797S/T790M/L858R (Homo sapiens (Human), UniProt P00533, C797S/L858R/T790M); assay: Enzymatic activity test (ADP-Glo) EGFR-C797S/T790M/L858R; type: biochemical; conditions: kinase
Method: as §1, §2

Sequence of EGFR-WT (P00533 25-1210): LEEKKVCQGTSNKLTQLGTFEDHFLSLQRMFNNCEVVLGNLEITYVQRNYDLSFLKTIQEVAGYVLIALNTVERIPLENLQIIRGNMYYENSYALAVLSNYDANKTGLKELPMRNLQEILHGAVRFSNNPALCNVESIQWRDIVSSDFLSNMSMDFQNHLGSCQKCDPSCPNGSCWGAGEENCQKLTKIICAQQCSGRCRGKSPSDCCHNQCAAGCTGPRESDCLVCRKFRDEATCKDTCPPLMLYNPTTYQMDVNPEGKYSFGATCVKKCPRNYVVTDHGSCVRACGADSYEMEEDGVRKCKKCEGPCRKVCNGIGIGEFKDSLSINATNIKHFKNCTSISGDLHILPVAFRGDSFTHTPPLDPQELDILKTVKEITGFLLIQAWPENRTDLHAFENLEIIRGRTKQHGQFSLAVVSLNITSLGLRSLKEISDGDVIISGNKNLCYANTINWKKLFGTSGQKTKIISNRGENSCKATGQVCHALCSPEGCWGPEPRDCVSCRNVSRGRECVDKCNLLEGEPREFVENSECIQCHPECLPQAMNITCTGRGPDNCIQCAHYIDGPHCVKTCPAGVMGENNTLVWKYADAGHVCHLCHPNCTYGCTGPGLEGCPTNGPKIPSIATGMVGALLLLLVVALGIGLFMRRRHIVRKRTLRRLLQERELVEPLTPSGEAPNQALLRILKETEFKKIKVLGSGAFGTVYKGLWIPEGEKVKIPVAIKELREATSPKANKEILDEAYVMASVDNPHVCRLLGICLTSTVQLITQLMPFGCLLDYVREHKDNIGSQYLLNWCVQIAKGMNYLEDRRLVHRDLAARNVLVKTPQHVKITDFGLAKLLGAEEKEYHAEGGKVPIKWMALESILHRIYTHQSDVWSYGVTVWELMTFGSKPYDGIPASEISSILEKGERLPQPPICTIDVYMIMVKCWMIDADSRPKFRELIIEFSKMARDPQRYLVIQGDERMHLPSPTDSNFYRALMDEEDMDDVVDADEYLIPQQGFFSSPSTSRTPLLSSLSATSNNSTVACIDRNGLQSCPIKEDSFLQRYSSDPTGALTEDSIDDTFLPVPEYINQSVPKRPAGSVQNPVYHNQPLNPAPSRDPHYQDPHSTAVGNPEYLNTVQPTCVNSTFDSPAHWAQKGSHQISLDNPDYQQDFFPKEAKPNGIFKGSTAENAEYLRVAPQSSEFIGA
Sequence of EGFR-C797S/T790M/L858R (P00533 25-1210 T790M/C797S/L858R): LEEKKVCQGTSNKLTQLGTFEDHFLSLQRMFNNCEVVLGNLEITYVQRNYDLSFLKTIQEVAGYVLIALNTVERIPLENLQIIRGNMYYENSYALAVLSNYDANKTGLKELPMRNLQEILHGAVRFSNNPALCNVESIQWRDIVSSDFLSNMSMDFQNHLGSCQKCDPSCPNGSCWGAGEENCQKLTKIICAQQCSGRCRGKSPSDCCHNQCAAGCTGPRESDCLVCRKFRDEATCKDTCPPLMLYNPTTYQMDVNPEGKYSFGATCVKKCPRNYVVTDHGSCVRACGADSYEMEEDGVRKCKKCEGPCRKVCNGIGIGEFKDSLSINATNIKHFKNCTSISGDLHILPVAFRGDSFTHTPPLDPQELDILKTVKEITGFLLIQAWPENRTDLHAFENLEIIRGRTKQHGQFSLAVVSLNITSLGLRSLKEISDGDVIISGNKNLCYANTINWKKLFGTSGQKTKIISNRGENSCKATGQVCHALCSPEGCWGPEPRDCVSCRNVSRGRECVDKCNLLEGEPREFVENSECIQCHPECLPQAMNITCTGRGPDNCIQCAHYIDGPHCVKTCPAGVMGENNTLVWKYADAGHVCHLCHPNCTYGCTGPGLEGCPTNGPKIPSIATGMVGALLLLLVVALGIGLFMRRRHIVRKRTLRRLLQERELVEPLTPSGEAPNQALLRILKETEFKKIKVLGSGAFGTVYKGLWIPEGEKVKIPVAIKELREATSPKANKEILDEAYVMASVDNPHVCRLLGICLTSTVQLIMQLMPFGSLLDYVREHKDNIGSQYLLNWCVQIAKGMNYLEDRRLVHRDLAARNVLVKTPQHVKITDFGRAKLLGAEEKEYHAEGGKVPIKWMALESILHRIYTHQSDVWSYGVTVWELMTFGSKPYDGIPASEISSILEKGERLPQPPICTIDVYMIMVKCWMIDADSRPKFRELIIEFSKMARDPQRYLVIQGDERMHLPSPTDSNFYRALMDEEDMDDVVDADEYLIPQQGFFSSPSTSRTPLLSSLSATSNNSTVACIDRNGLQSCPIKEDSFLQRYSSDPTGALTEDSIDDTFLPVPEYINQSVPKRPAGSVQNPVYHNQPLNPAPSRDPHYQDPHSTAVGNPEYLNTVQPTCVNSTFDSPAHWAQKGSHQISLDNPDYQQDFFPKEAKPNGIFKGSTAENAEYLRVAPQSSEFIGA

Structure (SMILES) | IC50 (EGFR-WT) [nM] | IC50 (EGFR-C797S/T790M/L858R) [nM]
CCc1cc(Nc2ncc(Br)c(Nc3ccc(C)cc3P(C)(C)=O)n2)c(OC)cc1N1CCC(N2CCN(C)CC2)CC1 [Compound 12] | 160 | 16.9
COc1cc(N2CCC(N3CCN(C)CC3)CC2)c(C)cc1Nc1ncc(Br)c(Nc2ccc(F)cc2P(C)(C)=O)n1 [Compound 11] | 98.6 | 12.7
